Data published in PubChem BioAssay AID686971 (National Center for Advancing Translational Sciences (NCATS), 2013).
The whole screen tested about 360,000 compounds, of which about 7,500 (2.1%) were called active. Inconclusive means that the source gave no clear call. Such entries were picked first, then a sample of the others. The call rests on the fitted dose curve; in most records, active means well fitted cell-killing curve with a large enough effect; inconclusive means small, poorly fitted or top-dose-only effect, or effect the other way, or another doubt; inactive means no such curve, though single readings can be large or run the other way. Potencies of inconclusive entries are left out as doubtful fits.

Assay: qHTS for induction of synthetic lethality in tumor cells producing 2HG: qHTS for the HT-1080-IDH1KD cell line;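 on activity, negative = toxicity: 0% = DMSO wells and -100% = cell-free medium wells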
Details: HT-1080 IDH1 knockdown viability, ATP luminescence, 48 h; activity, negative = toxicity: at 46.1 µM (top of the series) unless noted
In short: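 Viability of IDH1-knockdown HT-1080 fibrosarcoma cells was assessed by CellTiter-Glo after 48 h at 37 °C with titrated compound; concentration-effect curves were classified by fit quality and response size.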
Potency means the concentration at half of the fitted maximal effect; tags describe the fitted curve by direction and shape.

Row | SMILES | Potency | activity, negative = toxicity
1 | O=C(O)c1ccc(N=Nc2c(O)[nH]c3ccccc23)cc1 | inconclusive [cytotoxic, single point] | 
2 | CCCN1C(=O)/C(=C/c2c(N3CCNC(=O)C3CC(=O)OCC)nc3c(C)cccn3c2=O)SC1=S (centres undefined) | inactive | 
3 | CCOc1ccc2nc(NC(=O)c3ccccn3)sc2c1 | active: 16.4 µM | 
4 | CCCN(C(=O)c1cc(S(=O)(=O)N(C)c2ccc(OCC)cc2)ccc1C)C1CCS(=O)(=O)C1 (centres undefined) | inactive | 
5 | CC(=O)NC(c1ccc([N+](=O)[O-])cc1)c1c(O)ccc2ccccc12 (centres undefined) | inconclusive [cytotoxic, single point] | 
6 | O=C(Nc1ccccc1)c1ccc(NC(=O)C2CC2)cc1 | inconclusive [cytotoxic, single point] | 
7 | CCc1c(C)sc(NC(=O)CN2CCN(C(=O)c3ccco3)CC2)c1C(=O)OC | inconclusive [cytotoxic, single point] | 
8 | COc1cc(NC(N)=S)c(OC)cc1Cl | inactive | 
9 | O=C(COC(=O)c1nc(Cl)ccc1Cl)Nc1cccc(S(=O)(=O)N2CCOCC2)c1 | inactive | 
10 | O=C(Oc1ccc(-c2nc(-c3ccccn3)no2)cc1)c1ccccc1 | active: 2.31 µM | 
11 | Fc1ccc(CNC(=S)NC2CCCC2)cc1 | inconclusive [cytotoxic, partial curve, poor fit] | 
12 | O=C(NCCN1CCOCC1)c1ccc2c(c1)N(Cc1ccccc1F)C(=O)CS2 | inconclusive [rising, single point] | 
13 | OC(COc1ccc2ccccc2c1Br)Cn1cnc(-c2ccccc2)c1 (centres undefined) | inconclusive [cytotoxic, single point] | 
14 | Clc1ccc(OCc2nc(-c3ccccn3)n[nH]2)cc1 | active: 10 µM | 
15 | O=C(Nc1cc(S(=O)(=O)N2CCOCC2)ccc1N1CCCC1)c1cc(F)c(F)cc1Cl | inactive | 
16 | Cc1cccc2cc(C#N)c(SCCN3CCCCC3)nc12 | inconclusive [cytotoxic, single point] | 
17 | C/C(=N\Nc1cc(C(F)(F)F)ccc1Cl)c1ccncc1 | inconclusive [cytotoxic, partial curve] | 
18 | Cn1nnnc1SCC(=O)Nc1ccccn1 | inconclusive [cytotoxic, single point] | 
19 | CCN(CC(=O)Nc1ccccc1OC)C(=O)COc1ccc2ccccc2c1 | inactive | 
20 | O=C(Nc1ccccc1)c1ccccc1NS(=O)(=O)c1ccc(Cl)s1 | inconclusive [cytotoxic, single point] | 
21 | Oc1c(Cl)cc(Cl)cc1/C=N/Nc1ncc(Br)cn1 | inconclusive [cytotoxic, full curve] | 
22 | Cc1cc(C)c2c(=O)n3c(nc2c1)C(Cc1ccccc1)NC(=O)c1cccnc1-3 (centres undefined) | inconclusive [cytotoxic, single point] | 
23 | CCOc1cc(/C=C/c2cc(C(F)(F)F)[nH]c(=O)n2)ccc1O | inconclusive [cytotoxic, single point] | 
24 | CC(C)C(=O)NC(c1cccs1)c1cc([N+](=O)[O-])c2cccnc2c1O (centres undefined) | active: 7.31 µM | 
25 | CC(=O)N1CCc2cc(S(=O)(=O)N3c4ccccc4CC3C)ccc21 (centres undefined) | inconclusive [cytotoxic, full curve, poor fit] | 

Row | SMILES | Potency | activity, negative = toxicity
26 | COc1ccc(C(=O)CCc2ccccc2)c(O)c1 | inactive | 
27 | COc1cccc(CNS(=O)(=O)c2ccc(S(=O)(=O)NC3CC3)cc2)c1 | inactive | 
28 | O=C(Nc1ccc(F)cc1F)c1cc(-c2ccc3c(c2)OCO3)on1 | inactive | 
29 | CC(CCc1ccccc1)NC(=O)c1ccc(C(=O)NC(C)CCc2ccccc2)cc1 (centres undefined) |  | inconclusive: -13.7% [cytotoxic]
30 | CN(C)S(=O)(=O)N1CCC(Oc2cccc(C(=O)NCCCC3CCCC3)c2)CC1 | inconclusive [cytotoxic, single point] | 
31 | O=S1(=O)CC(N2CCN(CCO)CC2)CN1C1CCCC1 (centres undefined) | inconclusive [rising, partial curve] | 
32 | COc1ccc(/C=N/NS(=O)(=O)c2ccccc2)cc1OC | inactive | 
33 | CCCCCOc1ccc(NC(=O)CSc2cccc3cccnc23)cc1 | inconclusive [cytotoxic, single point] | 
34 | CC(C)(C)c1cc(NCCCn2ccnc2)n2ncc(-c3ccc(Cl)cc3)c2n1 | active: 10 µM | 
35 | CC(C)Cc1nc2sc3c(c2c(=O)n1N)CC(C(C)C)OC3 (centres undefined) | inconclusive [rising, partial curve] | 
36 | Cc1cccc(N=c2oc3cc(O)ccc3cc2C(N)=O)c1 | inconclusive [cytotoxic, single point] | 
37 | O=C(Nc1ccc(F)c(F)c1)c1ccc(F)c(S(=O)(=O)N2CCC3(CC2)OCCO3)c1 | inconclusive [cytotoxic, partial curve] | 
38 | O=C(Nc1cccc(C(F)(F)F)c1)C1Cc2c(-c3ccc(Cl)cc3)ccnc2O1 (centres undefined) | inconclusive [cytotoxic, single point] | 
39 | COC(=O)CN1C(c2ccc(Cl)cc2)=Nc2ccc(Cl)cc2C1c1ccccc1 (centres undefined) | inconclusive [cytotoxic, single point] | 
40 | CC(C)Cn1c(SCc2nnc(-c3cccs3)o2)nc(O)cc1=O | inactive | 
41 | COc1ccc(CNC(=O)CNC(=O)c2ccc(Br)o2)cc1OC | inactive | 
42 | C1=Nc2c(NCc3ccccc3)ncnc2Oc2ccccc21 | inconclusive [cytotoxic, single point] | 
43 | COc1ccc(CCNC(=O)CN(c2ccc(OC)c(OC)c2)S(=O)(=O)c2ccc(C)cc2)cc1 | inactive | 
44 | CC(=O)Nc1cccc(-c2cc(NC(C)=O)c3ncc(-c4ccccc4)n3c2)c1 | inconclusive [cytotoxic, single point] | 
45 | O=C(NC(=S)Nc1ccc(O)cc1)c1ccccc1Cl | inactive | 
46 | CCCCC[C@@H](C)N1C[C@@H](COCc2ccccc2)Oc2cc(N3CC[C@H](O)C3)ccc2S1(=O)=O | inconclusive [cytotoxic, single point] | 
47 | Cc1[nH]n(C(N)=S)c(=O)c1C(c1ccccc1)C(C#N)C#N (centres undefined) | inactive | 
48 | O=C(Nc1cc(Sc2ccccn2)cc([N+](=O)[O-])c1)c1cccc(Cl)c1 | inconclusive [cytotoxic, single point] | 
49 | CC1=Nc2cc(C(=O)NCc3ccco3)ccc2Sc2ccc(C)cc21 | active: 1.64 µM | 
50 | O=C(NCC1CCN(Cc2ccccc2F)CC1)Nc1cccc(Br)c1 | inconclusive [cytotoxic, single point] | 

Row | SMILES | Potency | activity, negative = toxicity
51 | COc1cc(/C=C2\CC/C(=C\c3cc(OC)c(OC)c(OC)c3)C2=O)cc(OC)c1OC | inactive | 
52 | C=CC[C@H](CC(=O)N(CCO)Cc1ccccc1)C(=O)N[C@@H](COC(=O)[C@H](CC=C)CC(=O)OC(C)(C)C)Cc1c[nH]c2ccccc12 | inconclusive [cytotoxic, single point] | 
53 | CCc1ccc(-c2cc(C(F)(F)F)n3nc(C(=O)Nc4cnn(Cc5ccc(C)cc5)c4)cc3n2)s1 | active: 3.16 µM | 
54 | Oc1ccc(C23CCCC2C2(CCCC2)c2ccc(O)cc2O3)c(O)c1 (centres undefined) | inactive | 
55 | CCOc1ccc(-c2[nH]ncc2Oc2ccccc2OC)c(O)c1 | inconclusive [cytotoxic, single point] | 
56 | CC(C)NC(=O)C1(C#N)C=C1c1ccccc1 (centres undefined) | inconclusive [cytotoxic, single point] | 
57 | CCc1nnc(NC(=O)c2ccc(OC)cc2OC)s1 | inconclusive [rising, partial curve] | 
58 | CCOC(=O)c1c[nH][nH]c1=O | inactive | 
59 | COc1ccc(N=Nc2c(C)[nH]c3ccccc23)cc1 | active: 18.4 µM | 
60 | CCn1c(=O)cc(SCC(=O)NCc2ccc(C)o2)c2ccccc21 | inconclusive [cytotoxic, single point] | 
61 | C#CC[N+](C)(C)CC#Cc1ccc(Cl)cc1 | inconclusive [cytotoxic, single point] | 
62 | CCn1c(SCc2nc(-c3ccc(Cl)cc3)no2)nnc1-c1ccco1 | inconclusive [cytotoxic, single point] | 
63 | Cc1cc(C)cc(OCC(=O)N2N=C(C(F)(F)F)CC2(O)C(C)(C)C)c1 (centres undefined) | active: 16.4 µM | 
64 | Cc1cc(-c2c(C)[nH]n(-c3ccc(Cl)cc3)c2=O)n(-c2ccc(Cl)cc2)n1 | inconclusive [cytotoxic, single point] | 
65 | O=C(CC(C(=O)O)c1ccccc1)Nc1cccc2ccccc12 (centres undefined) | inactive | 
66 | Cc1cccc(NC(=S)NC(=O)c2ccc(Br)o2)c1C | inactive | 
67 | COc1ccc(CNC(=O)CCNC(=O)C2CCN(S(=O)(=O)c3ccc(OC)cc3)CC2)cc1 | inactive | 
68 | CCOC(=O)Nc1ccc2nc(-c3cscn3)[nH]c2c1 | active: 25.9 µM | 
69 | O=c1cc(-c2ccccc2)[nH]n1-c1nc2ccccc2s1 | inconclusive [cytotoxic, single point] | 
70 | C/C(CCC(C)C)=N\NC(=O)COc1ccccc1-c1ccccc1 | inconclusive [cytotoxic, single point] | 
71 | CSc1ncc2[nH]c(C(O)c3ccccc3)nc2n1 (centres undefined) | inactive | 
72 | COc1ccccc1-n1cnc2cc(NC(=O)c3ccco3)ccc21 | inconclusive [cytotoxic, single point] | 
73 | O=C(O)Cc1ccc(NS(=O)(=O)c2ccc3ccccc3c2)cc1 | inactive | 
74 | CCOC(=O)[C@H]1[C@H]2COc3cc(OC)ccc3[C@@H]2N2C(=O)c3cc(F)ccc3NC(=O)[C@@]12C | inactive | 
